Experimental findings from the supplement of paper PMC11417369 are described below.

± gives the standard deviation of the averaged measurements. This is one part of the list.

This experiment has as its system PfAP2-EXP AP2 domain (GST-tagged). The experiment is described as follows: gcPBM binding intensity (ln(normalized median fluorescence intensity)); higher = stronger DNA binding. An outline of the steps:
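Each value is the highest Masliner-normalised natural-log median intensity across replicate spots of either orientation of a probe. The probes were primer-extended double-stranded 36-bp intergenic genomic sequences on an Agilent 4 × 180k array, alongside negative controls, exposed for 1 h to GST-tagged P. falciparum DNA-binding domains expressed in E. coli. Bound protein was picked up with Alexa488 anti-GST antibody and scanned at 488 nm.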
For the sequence “TGAGTATTTTTTTAATGTACTTATATTAAAAGGAAA [XGTACX_site6286]”, the “gcPBM binding intensity (ln)” value turned out to be 8.405 ± 0.035.

Take TATATTTTTTTTCTAGTGCATATTATTAATTAAGTT: the “gcPBM binding intensity (ln)” value worked out at 8.81 ± 0.18. The result for “TACAAAATAAGACATGCATGTTATACATATATATTT [TGCATGCA_site321]” reads 9.24 ± 0.35; that for “AAAATATTATTTTGTTGTACATATAAAATTTTAAGC [XGTACX_site1866]”, 8.72 ± 0.47; that for “AAACAAAAAAGAAACACACACTAATTAAATTTTCTT [CACACA_site4746]”, 8.32 ± 0.57. Consider TACAATACCGTACAGGTGCAACTAGCCAAAAAAAAG, for which the “gcPBM binding intensity (ln)” value was determined as 8.96 ± 0.44. The result for “TAAATTAATAAAAAGTGTACATAATATACATATATA [XGTACX_site8604]” reads 8.62 ± 0.33; that for TTTAATAATATTTAGGTGCTATATATTATATGTATA, 8.32 ± 0.21. The result for “ATAATTAAAAAAGGAATATATATATATATATATATA [GTGCAC_negctrl_site343]” reads 10.1 ± 0.46; that for “CGTATGACATAATATTGTACTTTTGATATACATCAT [XGTACX_site7366]”, 8.52 ± 0.35.

In the case of “ATAAATCATAAGGAGAGTACATAAATAAAATAATCA [XGTACX_site8825]”, the “gcPBM binding intensity (ln)” value came to 8.8 ± 0.49. As for “AAGTGGCATATAAGTAAAAAATATATACAAGTATAT [GTGCAC_negctrl_site427]”, the figure is 8.49 ± 0.27; as for “TATTAAAGATACTCGGTATAAATAAATTTTAATGTG [XGTACX_negctrl_site239]”, 8.34 ± 0.49; as for “CTCAATATATTTGATTTACACACTTACAATGTATAT [CACACA_site8982]”, 8.69 ± 0.35. The result for “TTATTTCTACCTTTTTGTACACATTATTATGAAACC [XGTACX_site5325]” reads 9.14 ± 0.49. The result for “TATAAAAAATATAATTGTACATAAAGGTTAAAATGT [XGTACX_site6138]” reads 8.91 ± 0.35; that for “ACAACATGCACACGCACACACAAAAAAAGCATGCAT [CACACA_site6185]”, 9.47 ± 0.057; that for “ATGCTTATTATTTATTGTACTGAATAAATATATCTG [XGTACX_site4483]”, 8.5 ± 0.24.

Take “TATTAACACTTTATAGAAACAAAAAAATAAGCAAAA [XGTACX_negctrl_site295]”: the “gcPBM binding intensity (ln)” value turned out to be 8.53 ± 0.3. As for “TTTGAATTTTTTAACACACACATGTGTGGATATATA [CACACA_site6872]”, the figure is 8.56 ± 0.35. Consider “TGGGTAATACATAATACACACATGTATATGTCGCAT [CACACA_site1125]”, for which the “gcPBM binding intensity (ln)” value amounted to 8.46 ± 0.35. The result for “AGTATATATACACAAGGGGAATACATATACAAAATT [TGCATGCA_negctrl_site244]” reads 8.89 ± 0.39; that for “AAATTTATATAATATTGTACATTAAAAATTATATAT [XGTACX_site8009]”, 8.21 ± 0.25; that for “TTTTTAAAAAAGATAAGCGAAAGAATTAATTTTTAA [GTGCAC_negctrl_site197]”, 8.48 ± 0.43. The result for “TATGTATAAATATATGCACACATATATATATTTATA [CACACA_site9150]” reads 8.42 ± 0.18; that for “ATATATATAATAAACACACACATATACATATATGTA [CACACA_site3462]”, 8.61 ± 0.23; that for “AAGTTGTATATTGATTGTACTTGTTTAGGGTTATAG [XGTACX_site2953]”, 8.64 ± 0.42. In the case of “TATATATATATAATGTGTACACAAATATATATTATA [XGTACX_site8786]”, the “gcPBM binding intensity (ln)” value was 9.74 ± 0.23.

As to “AGGTAAAATATACATTGTACATATAATTAATTTATT [XGTACX_site626]”, the “gcPBM binding intensity (ln)” value was 8.47 ± 0.4. As for “ACATACTTTAATATATGTACATAAGAAAAAAAAAAA [XGTACX_site2991]”, the figure is 8.69 ± 0.35; as for “AATATAAATTAATTTACACACTAAAAAATATTTATA [CACACA_site7728]”, 8.27 ± 0.41.

Turning to “TATTTTTTATATTTATTTATTTAAAGGAGCTTTTCT [GTGCAC_negctrl_site293]”, the “gcPBM binding intensity (ln)” value was determined as 8.16 ± 0.33. Consider “TATAAGAATGACAAGTGTACATATCAAATATATTAG [XGTACX_site7113]”, for which the “gcPBM binding intensity (ln)” value was 8.52 ± 0.43. The result for “TATACTAAAAAATACACATGCACATACAATATATAT [TGCATGCA_site1016]” reads 9.12 ± 0.28; that for “AAAATAATATATAATTGTACTTTTTTTTTATATATA [XGTACX_site6093]”, 8.3 ± 0.37.

On to “ATTATTACACAACGTTGTACATTTCAATATTTTTAT [XGTACX_site5096]”, for which the “gcPBM binding intensity (ln)” value amounted to 9.05 ± 0.47.

Turning to “TCCTCTTCAATATATATATATTATAAATAAATAAAT [CACACA_negctrl_site1756]”, the “gcPBM binding intensity (ln)” value worked out at 8.62 ± 0.47.

For the sequence “TTTTTTCTTAAAATTTGTACATAGTGCAATTTTTTT [XGTACX_site5509]”, the “gcPBM binding intensity (ln)” value was found to be 8.21 ± 0.29. As for “TTTCTTTTTTTTTAATGTACTTTTTTTATAAAAGGT [XGTACX_site5688]”, the figure is 8.59 ± 0.39. The result for “TGTACATATATATATATAATAATAGTTATGTTTATT [CACACA_negctrl_site1474]” reads 8.36 ± 0.31; that for “TTTTTTTATAGCTAAACACACATAAGAATATATGTT [CACACA_site1099]”, 8.59 ± 0.61. The result for “TATATATGTGTATAGAGTACACGTTTTTTTTAATAT [XGTACX_site3128]” reads 8.14 ± 0.11.

As to “AAAAACCTGAACTGTGCATGTCATACTTTTACTTTT [TGCATGCA_site73]”, the “gcPBM binding intensity (ln)” value came out at 8.85 ± 0.31. As for “TGTATAAACTTTACGTGTACATGAATAATCTATAAT [XGTACX_site3801]”, the figure is 8.62 ± 0.45; as for “TAAATACATCTATGCACACAAAAAAATATATATTTT [CACACA_site5027]”, 8.57 ± 0.53.
